Measured values as given in patent US20240041830A1, “CIRCULATING BIOMARKERS OF RESPONSE TO PD-1/PD-L1 BLOCKADE AND GSK-3 INHIBITION” (Brown University, priority 2022, published 2024).

System: SW480
Assay: multicolor co-culture of SW480 and donor-derived CD8+ T cells
Conditions: then co-cultured with donor-derived CD8+ T cells
Method: Isolation of donor-derived CD8+ T cells. An Easy Step Human CD8+ T Cell Isolation Kit was used to isolate CD8+ T cells from a donor PBMC sample via negative selection (Cat #, 17913, Stem Cell Technologies, Vancouver, Canada).
Multicolor immune cell co-culture experiments. […] Immune cell monocultures were treated with DMSO, 5 μM or 10 μM elraglusib and cell viability was monitored to ensure that the concentrations of drug used were not cytotoxic to immune cells. Colorectal cancer cells were labeled using CellTracker™ Green CMFDA (5-chloromethyl fluorescein diacetate), immune cells (NK-92, TALL-104) were labeled using CellTracker™ Blue CMAC Dye (7-amino-4-chloromethylcoumarin). Ethidium homodimer-1 (EthD-1) was used as a marker of cell death (Invitrogen, Waltham, MA, USA). 10× images were captured using a Nikon Ti-U Inverted Fluorescence Microscope and NIS-Elements F Package imaging software 3.22.00 Build 710 (Nikon Instruments Inc., New York, NY, USA). The number of red/green color cells in random fields was determined using thresholding and particle analysis in the Fiji modification (RRID: SCR_002285) of ImageJ and expressed as a dead/live cell ratio. […] At least one hundred cells were evaluated per sample, with three independent replicates. […]

Structure (SMILES): Cn1cc(C2=C(c3coc4ccc(F)cc34)C(=O)NC2=O)c2cc3c(cc21)OCO3 [elraglusib]
- dead cells out of total cells (tumor cells pre-treated 5 μM for twenty-four hours): 65%
- dead cells out of total cells (tumor cells pre-treated 10 μM for twenty-four hours): 70%
